# Measured values as given in PubChem BioAssay AID588795 (National Center for Advancing Translational Sciences (NCATS), 2011).
# About 1,400 (0.36%) of roughly 390,000 compounds were called active. This list was built around the results that the source calls inconclusive (neither active nor inactive); the mix of calls is not that of the screen. Calls follow the shape of the dose curve; as a rule, active = well fitted inhibition curve with a large enough effect; inconclusive = small, poorly fitted or top-dose-only effect; inactive = no such curve, though single readings can be large or run the other way. A potency beside an inconclusive call is a rough fit, not a confirmed value.
# Biological target: Flap endonuclease 1 (Homo sapiens) (UniProt P39748)
# Sequence of UniProt P39748 (P39748 whole entry, looked up): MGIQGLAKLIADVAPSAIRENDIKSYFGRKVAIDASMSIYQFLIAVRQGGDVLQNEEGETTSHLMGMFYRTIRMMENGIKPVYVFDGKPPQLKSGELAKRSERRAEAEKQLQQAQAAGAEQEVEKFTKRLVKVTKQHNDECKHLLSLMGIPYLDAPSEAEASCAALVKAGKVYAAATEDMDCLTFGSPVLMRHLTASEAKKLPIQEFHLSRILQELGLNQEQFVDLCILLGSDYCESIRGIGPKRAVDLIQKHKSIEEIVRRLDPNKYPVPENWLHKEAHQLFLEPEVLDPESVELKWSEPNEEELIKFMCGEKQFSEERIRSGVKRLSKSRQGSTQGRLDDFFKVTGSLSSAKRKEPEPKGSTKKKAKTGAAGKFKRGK
# Assay: qHTS Assay for the Inhibitors of Human Flap endonuclease 1 (FEN1). Also: nearly all actives have a fitted effect of over 65% in size.
# Conditions: Recombinant FEN1 flap cleavage, fluorescence, 15 min; series mostly up to 114 µM; activity change, negative = inhibition: at the top concentration
# Procedure, shortened: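 Quantitative HTS format: each compound was titrated, incubated with 10 nM nuclease for 15 min at room temperature, then challenged with flap substrate at 50 nM final. Signal change over 15 min gave concentration–effect curves.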
# % is scaled to controls: 0 for no effect and ±100 for the full control effect; potency is read from the fitted curve at half-maximal effect; tags tell the direction and shape of the fitted curve.
SMILES,Potency,"activity change, negative = inhibition"
Cc1c(C(=O)O)c(O)cc2c1C(=O)c1c(O)c([C@H]3O[C@H](CO)[C@@H](O)[C@H](O)[C@H]3O)c(O)c(O)c1C2=O,active: 50.1 µM,
CCOc1cc(/C=C2\SC(=O)N(CC(=O)Nc3ccccc3F)C2=O)cc([N+](=O)[O-])c1O,active: 50.1 µM,
O=C(CSc1ccc(-c2ccco2)nn1)c1ccc(F)cc1,"inconclusive: 89.1 µM [inhibitor, partial curve, poor fit]",
COc1ccc(-c2cc(C)no2)cc1S(=O)(=O)NCC1CCN(Cc2cc(C)ccc2C)CC1,"inconclusive: 89.1 µM [inhibitor, partial curve, poor fit]",
COc1cc(-c2ccno2)ccc1S(=O)(=O)N1CCN(c2cccc(Cl)c2)CC1,,inactive: 10.7%
O=C(O)c1ccc2c(=O)n3cc(C(=O)c4ccccc4O)cc(Cl)c3nc2c1,active: 35.5 µM,
O=C1CC(=Nc2ccccc2)NN1c1ccccc1,"inconclusive: 89.1 µM [inhibitor, partial curve, poor fit]",
Cc1cccc(C)c1NC(=O)COC(=O)c1ccc([N+](=O)[O-])o1,"inconclusive: 35.5 µM [inhibitor, partial curve]",
CCc1ccc2nc(N=C(N)N)nc(C)c2c1,"inconclusive: 89.1 µM [inhibitor, single point]",
O=C(O)CSc1cc(NS(=O)(=O)c2cccc([N+](=O)[O-])c2)c2ccccc2c1O,active: 3.16 µM,
Cc1cccc(COCC(Cc2ccccc2)N2CCN(C(=O)c3cccc(C)c3)CCC2=O)c1 (stereo unspecified),"inconclusive: 79.4 µM [inhibitor, partial curve, poor fit]",
CN(C)c1ccc(/C=C/c2ccnc3ccccc23)c(F)c1,"inconclusive: 70.8 µM [inhibitor, partial curve, poor fit]",
CC(C)[Si]1(C(C)C)OCC2OC(n3cnc4c(N)ncnc43)C(N)C2O[Si](C(C)C)(C(C)C)O1 (stereo unspecified),"inconclusive: 50.1 µM [inhibitor, partial curve, poor fit]",
Brc1cccc[n+]1Cc1ccc(C[n+]2ccccc2Br)cc1,,inactive: 11.9%
O=C(Cn1nnc(-c2ccccc2)n1)N/N=C/c1cc([N+](=O)[O-])ccc1O,,inactive: 0.895%
O=C(Nc1cc(F)ccc1F)c1cnn2c1NC(=C1CC1)C=C2C(F)F,,inactive: -0.15%
COc1ccc2c(c1)C1=C(CC2)C(c2ccc(C)cc2)NC(=S)N1 (stereo unspecified),"inconclusive: 44.7 µM [inhibitor, partial curve, poor fit]",
Oc1ccc(Br)cc1C1C=C(c2ccc3c(c2)OCO3)NC(c2c(F)cccc2Cl)N1 (stereo unspecified),"inconclusive: 44.7 µM [inhibitor, partial curve, poor fit]",
CCCN(CCC)CCCNC(=O)c1cc2c(-c3ccc(Cl)cc3)nn(C)c2s1,"inconclusive: 39.8 µM [inhibitor, partial curve]",
CN(C)C(=O)CCc1ccc2c3c([nH]c2c1)[C@]1(CCc2ccccc2)[C@@H](C(=O)N2CCCCC2)C[C@H](CC(=O)NCc2cccc(C(F)(F)F)c2)C(=O)N1CC3,,inactive: 2.18%
Cc1ccc(C(=O)NCCSc2c(C)[nH]c3ccccc23)cc1C,"inconclusive: 79.4 µM [inhibitor, single point]",

SMILES,Potency,"activity change, negative = inhibition"
COc1ccc(OC)c(NC(=O)CSc2sc3c(O)cc(=O)[nH]c3c2C#N)c1,active: 79.4 µM,
COc1ccc(N=c2scc(C)n2CCCN2CCCC2=O)cc1,,inactive: -3.94%
Cc1cccc(NC(=O)C2CCCN(S(=O)(=O)c3cccc4nonc34)C2)c1C (stereo unspecified),,inactive: 10.3%
Cc1cccc(Nc2nc(N)c([N+](=O)[O-])c(NCc3ccco3)n2)c1,"inconclusive: 44.7 µM [inhibitor, partial curve, poor fit]",
CC(=O)c1ccc(NC(=O)c2ccc(NC(=O)c3ccco3)cc2)cc1,"inconclusive: 100 µM [inhibitor, single point]",
COc1cc2cc(C(=O)N/N=C/c3cccc(OC)c3OC)[nH]c2cc1OC,"inconclusive: 56.2 µM [inhibitor, partial curve, poor fit]",
CCc1cccc(CC)c1NC(=O)Cn1nnc2sc(-c3ccccc3)cc2c1=O,,inactive: -11.7%
Oc1cc2c(cc1O)CN(C(=S)NCCc1ccc(Cl)cc1)CCC2,"inconclusive: 141 µM [inhibitor, single point]",
CCOC(=O)C1CCN(C(=O)Nc2ccc3nc(-c4ccco4)c(-c4ccco4)nc3c2)CC1,"inconclusive: 50.1 µM [inhibitor, partial curve]",
O=C(COC(=O)c1ccc(Br)o1)Nc1ncc([N+](=O)[O-])s1,"inconclusive: 56.2 µM [inhibitor, partial curve, poor fit]",
COc1cc(/C=N/N2C(=O)CSC2=S)ccc1O,"inconclusive: 79.4 µM [inhibitor, partial curve, poor fit]",
Cc1ccc(N=Cc2cccc(O)c2O)c(C)c1,active: 4.47 µM,
COC1=CC(=O)c2c(ccc3ncnc(N)c23)C1=O,"inconclusive: 50.1 µM [inhibitor, partial curve]",
COC(=O)c1ccc(NC(=O)c2ccc(NC(=O)c3ccco3)cc2)cc1,"inconclusive: 89.1 µM [inhibitor, partial curve]",
Cn1cccc1/C=C1\SC(=S)N(Nc2ccccc2)C1=O,"inconclusive: 39.8 µM [inhibitor, partial curve, poor fit]",
CCCS(=O)(=O)c1ncc(Cl)c(C(=O)N2CCN(c3ccc(OC)cc3)CC2)n1,"inconclusive: 25.1 µM [inhibitor, partial curve, poor fit]",
Nc1nc(-c2cc(O)ccc2[N+](=O)[O-])cc(-c2ccccc2)c1[N+](=O)[O-],"inconclusive: 79.4 µM [inhibitor, single point]",
COc1ccc(-n2nnnc2SCC(=O)NCc2ccco2)cc1OC,,inactive: -3.59%
CCC(=O)N1CCN(c2ccccc2NC(=O)c2ccc(-c3cccc([N+](=O)[O-])c3)o2)CC1,"inconclusive: 25.1 µM [inhibitor, partial curve, poor fit]",
COc1ccc2cc(C(=O)/C=C/c3cc(OC)c(O)c(OC)c3)ccc2c1,"inconclusive: 35.5 µM [inhibitor, partial curve]",
